# Assay results from article PMC4336329 (PLoS ONE, 2015).
# Out of some 310,000 compounds screened, about 2,200 (0.71%) showed an effect of 50% or more. The effect is printed as a negative number. The list shows a part of the results.
# Target: human ether-à-go-go-related gene (hERG) potassium channel (human, UniProt Q12809)
# Assay: primary screen, population patch clamp on CHO cells stably expressing hERG
# Chain of human ether-à-go-go-related gene (hERG) potassium channel (Q12809 whole entry, looked up): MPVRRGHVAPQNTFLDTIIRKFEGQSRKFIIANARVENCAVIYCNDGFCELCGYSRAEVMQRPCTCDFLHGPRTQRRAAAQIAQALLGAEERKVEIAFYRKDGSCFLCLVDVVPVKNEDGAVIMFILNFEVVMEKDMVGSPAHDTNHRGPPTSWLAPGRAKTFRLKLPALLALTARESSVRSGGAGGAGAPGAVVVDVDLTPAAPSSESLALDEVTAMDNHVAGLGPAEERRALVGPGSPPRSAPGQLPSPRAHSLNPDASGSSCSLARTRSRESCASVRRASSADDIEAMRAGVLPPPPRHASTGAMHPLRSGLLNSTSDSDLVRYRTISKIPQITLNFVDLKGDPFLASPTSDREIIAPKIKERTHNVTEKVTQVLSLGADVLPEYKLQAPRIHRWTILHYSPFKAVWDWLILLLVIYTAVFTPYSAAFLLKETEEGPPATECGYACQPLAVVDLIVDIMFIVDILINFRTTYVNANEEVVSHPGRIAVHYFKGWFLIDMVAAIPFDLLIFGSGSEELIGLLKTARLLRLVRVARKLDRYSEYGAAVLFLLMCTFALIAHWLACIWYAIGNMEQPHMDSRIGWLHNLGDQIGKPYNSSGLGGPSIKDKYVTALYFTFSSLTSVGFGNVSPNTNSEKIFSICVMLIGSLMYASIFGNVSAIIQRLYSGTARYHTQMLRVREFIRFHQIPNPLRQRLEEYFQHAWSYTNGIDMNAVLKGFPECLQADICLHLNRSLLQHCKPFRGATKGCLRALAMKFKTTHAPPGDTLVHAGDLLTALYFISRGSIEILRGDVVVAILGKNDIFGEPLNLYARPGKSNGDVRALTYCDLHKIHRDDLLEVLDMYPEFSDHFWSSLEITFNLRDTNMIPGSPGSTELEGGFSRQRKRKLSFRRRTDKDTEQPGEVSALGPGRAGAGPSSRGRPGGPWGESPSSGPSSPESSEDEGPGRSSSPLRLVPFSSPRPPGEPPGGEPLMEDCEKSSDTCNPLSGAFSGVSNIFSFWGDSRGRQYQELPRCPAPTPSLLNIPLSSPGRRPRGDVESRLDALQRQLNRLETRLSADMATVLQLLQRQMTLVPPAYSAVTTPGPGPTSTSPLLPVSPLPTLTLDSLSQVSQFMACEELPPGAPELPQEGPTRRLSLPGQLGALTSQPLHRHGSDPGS
row,Structure (SMILES),"hERG current change (%, negative = inhibition) at 1uM [%]"
1,Cc1cc(Nc2cccc(F)c2)n2nc(C)nc2n1,3.86
2,O=S(=O)(NCC(O)COCc1ccco1)c1cccs1 (stereo not drawn),24.4
3,Nc1c(C(=O)OCC2CCCO2)c2nc3ccccc3nc2n1-c1ccc2c(c1)OCCO2 (stereo not drawn),11.8
4,O=C(CN1C(=O)NC2(CCc3ccccc32)C1=O)c1ccc(F)c(F)c1 (stereo not drawn),0.854
5,CCOC(=O)c1c(NC(=O)NC(C)(C)C)sc2c1CCN(C)C2,3.53
6,CSc1nc(N)nc(SCC(=O)C(C)(C)C)c1C#N,4.52
7,COc1ccc2[nH]c(C)c(CCNCc3cc(OC)c4c(c3)OCO4)c2c1.O=C(O)C(=O)O,7.72
8,CCCN(C(=O)c1ccc(N2CCCC2=O)cc1)c1c(N)n(Cc2ccccc2)c(=O)[nH]c1=O,4.98
9,Cc1cc(C)c(OCC(=O)OCC(=O)NNC(=O)c2ccccc2F)c(C)c1,16.1
10,CN(CC(=O)Nc1cccc(F)c1)C(=O)CCN1C(=O)C2CC=CCC2C1=O (stereo not drawn),8.97
11,CC1(C(=O)Nc2ccc3c(c2)OCO3)CC1(Cl)Cl (stereo not drawn),15.2
12,COc1ccc(C(=O)CSc2nccc(=O)[nH]2)cc1,-0.7
13,COc1ccc(S(=O)(=O)N2CCc3ccccc32)cc1NC(C)=O,11.3
14,CN(C)/C=N/c1ncc(C(=O)OC(C)(C)C)s1,-0.161
15,O=C(CC12CC3CC(CC(C3)C1)C2)N/N=C\c1ccc[nH]1,6.87
16,CS(=O)(=O)Nc1ccc(C(=O)NCCC2=CCCCC2)cc1,-30.9
17,COc1ccccc1N1CCN(C(=O)CNC(=O)c2cn(-c3ccccc3OC)c(=O)c3ccccc23)CC1,4.27
18,O=C(CSc1nccc(=O)[nH]1)Nc1ccc(Br)c(Cl)c1,19.7
19,CC1(C)CC(NC(=O)COc2cc3oc(=O)c4c(c3cc2Cl)CCC4)CC(C)(C)N1,17.1
20,Cc1cccc(-c2noc(CN(C(=O)/C=C/c3ccccc3Cl)C(C)C)n2)c1,12.3
21,CC(C)N1CCC(N2CCN(Cc3ccc(C#CC(C)(C)O)s3)CC2CCO)CC1 (stereo not drawn),11.6
22,CCn1c2ccccc2c2cc(NC(=O)c3cccc(OC)c3)ccc21,3.02
23,COc1ccc(-c2nc3n(n2)C(c2ccccc2Cl)C(C(N)=O)=C(C)N3)cc1 (stereo not drawn),-3.77
24,CNS(=O)(=O)c1cc(NC(=O)CCNC(=O)c2ccco2)ccc1C,12.5
